The source gives no read counts; variants with many changes may rest on few reads.
B1: LINE1-full (parent)
chain: UACGUAGGUGGUUUUCCCCUGAUAGUGCUAAGGGGGCCUGGAAGUUUGGACUGGGCAGAGCUCAACACAGCGUGGCAAAGUGGCUGUGGCUAGACUGCCUCUCUGGAUUCCUCGUCACUCAGCAGGGCAUCUCUGAGAGAAAUGCC

Variants of: B1
Assay: self-cleavage, relative activity (ratio to wild type); higher = more cleavage; in vitro, sequencing; the parent is a self-cleaving ribozyme

Variant | self-cleavage
U47C U52C A92U A142G | 1.84
U12C U109C C113U | 0.62
U39C A69U A77G G135A | 0
U5C A6U U15C G72A | 0.88
G36A A59G U73C U132C | 0
C16U U29C G93A | 0.16
A43G G75A A77G A94G | 0.31
U20C G35A A121G | 1.09
U15C G53A A124G A142G | 1.03
U5C U85A U96A | 0.16
G53A A107U C146U | 1.14
A6U G89U A124G | 0.05
A42G C63U A64U C71U U85C | 0.07
G32A A117G A136U | 1.04
A24U C38U U115C | 1.55
A50G U62C U104C A138G | 0
U1C U15C U87C U100C | 0
U20C G106A U115C U134A A141G | 1.88
C3U U13C U62C A121G A124U A141G | 0
A50C A136G A142G | 0.94
U9G A59C U62C | 0
A2G U100A U130A | 0.41
A2G G32A U39C G93A U119A | 0.1
U1C U62C A121C | 0.35

Variant | self-cleavage
U12A C17G U104C | 1.38
A92C A124G G125U | 0.05
U12C U14C G82A G125A U130C C131U C145U | 1.8
U5G U12C A124U | 0.67
U9A U39C U112C | 1.53
C63U A67G A69U U102C | 0.04
A69U A121G A140C | 0.07
U14A G88A A141G | 0.06
U23A U39C G127A A141G | 0.73
A57G A65G U108A | 0.13
U29C U73C A92G U134C | 0
U12C U20C U46A C56U | 0.22
A22G A78G A136U | 0.99
A31G G33U U73C A77U U85C | 0.07
U1C A42G A138G | 1.03
U14C A31U U96A A129G | 0
U119A A142G U143C | 1.62
A79U U100C U143A | 2.73
U73C U100A U104A | 1.83
U26C U52C A65G A124G | 0
U20A U109C U132C | 1.66
A6U U9G U39A U46C C99U A129U A141G | 1.01
U109A A117G A138G | 0.88
G82A U104C A136G | 1.73

Variant | self-cleavage
U20C G60A A94G A124G G126A | 0.04
A6G U26C U87C A136G | 1.31
U47C A59U U73A A121U U134C A140G | 1.4
A79G U102C A138G | 0.71
U45C U96A U100C | 0.14
U13C U20A A22U A136U A140G G144C | 1.29
A43G A77G U87C | 0
G4A U14A C37G A77U U119C A121U G144U | 0.57
U47A A69G G106U A129U | 0.28
A6U U20C A124G | 0.18
C56A C101A A124G | 0.02
C3U U112A G127C | 0.71
A64G A107U U112A A140G U143A | 0.29
C51U U96C G126A | 0.11
A22G A50G C128U | 0.55
U15C U20G A42U U115C A138G | 0.51
U47C U115C A117U | 1.93
A6G U13C U100C | 0.96
U12G A57U A141G | 0.1
U20A U39G G114U | 1.28
U15C G41U U47A U73C A79G | 0.88
U96A U115A A121G | 0.08
U13C G40A G44A A79G U85C A94U A136C A138U | 0.05
U12G U47C A78U U109C U115C | 0

Variant | self-cleavage
A2G U13C A64U A121G A129G U143G | 0.54
U52A U108C A140U | 1.89
U15C A31U A78G A94U U96C | 0.37
G7A U29A A67U A121G | 0.22
U47C U102A U143A | 1.23
U5C U13C U29G | 2.11
A6U G7A A43G G55A A69U | 0.1
U12C U85C C133U | 0.12
A2G U13G U23C G44A | 1.28
G4A U15C A30G A79U | 1.15
U12C A65U A107G | 0.71
U52C G114C A124U | 1.48
U85C U102C C113U | 0.22
G80C A124U A141G | 0.42
A129G U130A A141G | 0.95
A124G C131U A140G A141G | 0.8
G32C A50G U134C | 1.02
U119C A124G A140G | 0.62
C18U C56U A142G | 0.17
A77G U109C U112A | 0.46
A77G U85C A142G | 0.5
U14C U20C U104G A136G | 2.04
U9A A30U A43G U87A U134A A140G | 0.18
U46A A50G A64G U73C A138G | 0

Variant | self-cleavage
A64U U85A U112C A129G C146A | 0.05
A6U A59G A138G G139A A140G | 0.24
A22G A24G U52C A107G | 0
U13C A22G A77G A94G A142G | 0.97
U46C A77U A121G A129C | 2.07
A57G G93U U104C U143C | 0.06
A77G U100A A107U | 1.92
A2G U46A U115C | 0.34
A6G C18U A57G U112C | 0.95
G40A U102C G137U A138G | 1.37
U12C A50G A67G | 2.04
C17G A57U U73A G86A | 0
U108A U130C C133U | 2
C68A G72A C99U U100C | 0.04
A2G U15C C19U | 1.29
A79G U112A U143A | 2.14
A64U A69U U119C | 0.05
U13C U14C A77U U130C U134A | 0.89
A31U A65G U104C | 0
A64G U73C U81A A121U | 0.61
U9C A59G U96C | 0
U39A U115C A117U | 1.59
U12C U14C A42G A78G | 0
A65U U109A G122A U132A | 0.09

Variant | self-cleavage
A22G A43U A65G | 0
U52G U102C U108A A124G A141U | 2.76
G4A U46C A78G C90U G122U | 0.03
A50G C61U C76U U85C U104C A117U A121U | 0.05
G40A U109A C123U U132C | 1.23
C56U A67G A141G | 0.06
U20A U23C U81C | 1.53
A42U U87A U108C | 0.01
U13C U15C A65G A129G | 0
A79G U87C U109A U130C | 0
A24U U26A U73C | 0.87
C51U U108C U115A | 1.13
U12G U109C A121U A136G | 0.97
U13C A79G G88A | 0.12
G11A A30G U119C | 2.7
A22U G54A U119C A124G | 0.18
G97A U102A A140G G144A | 0.15
U46C A57G A77U U87A | 0.08
A42G A57G A77G A92U | 0
A2G A65G U81A C120U A129U | 0.12
A30G U46A U134A | 0.63
U5C U39A U104A U112A A141G | 1.32
G27A G82A C111A C146G | 1.06
G40A A65G U81C | 0.02

Variant | self-cleavage
U13C C68U A77G U81G | 0.04
U46A U47C A64U U134A | 0.33
U81C G83A U108C A138G | 1.51
U5C U20G G36A A78G A138G A140U | 1.93
U5C C68A U102G U108C U119C | 0
U1C U85C U115C | 0.31
U9C U45A U62C U87A | 0.17
A2G U87A U115C | 0
U12C U91A U102A U115C A140U | 0.99
A31U U85A A92G U132A | 0.23
U29C U85C A140G | 0.44
U12C A43G U109G | 0.85
U45C A50C C113U | 0.85
U46A U102C U109C | 1.66
U13C A77G U115A A117U A136G | 1.76
U9G C66A U115C | 0.07
U39C U81A C123U C128U | 1.83
A31U G49A A64G | 0.12
U23C A24G A142G | 0.55
A64U U81G A140G | 0.12
U14C U132C A136G | 1.71
U12G U85G A124G U134A | 0
U87C U91C A117U A129G | 0
